The other results are listed elsewhere or left out. At the low end of the ranking, values are background and their order means little.
Target: SIX1 homeodomain (reference allele) (UniProt Q15475)
Assay: universal protein binding microarray
Details: Universal all-10-mer PBM (8x60K, AMADID 030236), 300 nM GST-tagged protein, Alexa Fluor 488 anti-GST; buffer, salt, pH and temperature not stated; high values mean tight binding; most listed sequences are background and not binding sites; double strand, one strand shown

Sequence | binding signal [E-score]
TGGCTGAA | -0.0477
AGCTAACT | -0.128
TAAATAAA | -0.148
CCTGTACG | -0.0176
ACTAACAC | -0.0253
ACAGAGCA | -0.175
ACTGGCTA | -0.182
CGCAGCCC | -0.224
CGAGTTGC | -0.225
CTGACTCC | -0.0493
ACACGTTC | -0.0979
AACCTGGG | -0.0294
GTATTCGA | 0.141
AACCCGTG | -0.0305
TCATGTCA | -0.0575
AATGTCGC | -0.0445
GCACACCC | 0.144
ATCATGCG | 0.24
GCTTTTAA | -0.281
GACAGGAA | -0.197
CAGGACAC | 0.187
AAGTAACA | -0.148
GAGTTTTA | -0.121
CCTGCCTA | 0.0626
CGACTGGC | -0.242

Sequence | binding signal [E-score]
CACGCGCG | -0.146
AATGTAAA | -0.0866
CAGCTTAA | -0.157
ACAGCTGG | -0.274
GGATTGGA | 0.171
TAACTAGA | 0.0558
AAACCTAA | -0.109
CCCGGAGC | -0.109
CATTTCGG | -0.137
GCTCGCCC | -0.0344
AGCCCTTG | -0.0416
AACATCGC | -0.164
CAGATTGG | 0.0663
AGTCCCGG | -0.293
CGGCGACG | -0.13
CACCGGGG | 0.0349
CTATTATA | 0.132
ACGGGTCG | -0.0259
CACTAGTG | 0.138
ACAGGGCT | -0.194
CCCGCGCC | 0.0972
GGGGCGGA | 0.159
CATGTCAC | -0.146
CGGTCCGA | 0.0143
AACTATGC | -0.183

Sequence | binding signal [E-score]
CGTCCATA | -0.0698
CTCCAGGC | -0.221
CAGCGGCA | -0.274
AGTCTGCA | -0.273
GTCTTATA | 0.145
GGCATACA | 0.0145
ACTTCGCT | -0.0769
AGAAGAAC | -0.0578
AGTCGCAT | -0.0501
GCCCCGTA | 0.048
CCCCTATA | 0.198
CACCAAGG | 0.0261
CCACCTAA | -0.0563
TCTTTTCA | -0.176
TATCTAGA | 0.189
AACCTAAA | -0.193
ATTCTTAA | -0.0969
GCCAGAAC | -0.0551
CGAAGTAA | -0.0763
GATTCTAA | -0.0872
CAGCTGTC | -0.254
GACCGCGC | -0.205
AGGTGTAA | 0.165
AGTAGTCG | -0.094
AATCGACA | -0.0126

Sequence | binding signal [E-score]
CCCAGGGC | -0.163
ACCTGAAT | 0.0191
TGTCACAA | 0.0301
CACGGGTC | -0.0655
CTCATGCA | 0.0525
CCGACGCA | -0.195
GCCGTACA | -0.00255
AAGCTGAC | -0.269
CGTCCCCA | -0.134
CCTAATCA | 2.5e-05
AAACGTTA | -0.171
CCATCACA | 0.0973
GACAGCCC | -0.171
AAGGTCTA | -0.00129
ATACATGG | 0.31
GTGCGCAA | -0.185
GCAGGTAA | -0.14
AATCTTGT | 0.0243
CCAACCTA | -0.157
GGTTTAAC | -0.0475
CAGGGACG | -0.222
GCTCTAGA | -0.0141
CAACATCA | -0.15
AAGAGGAT | 0.212
AACCGCCG | -0.0966

Sequence | binding signal [E-score]
CGCAGGGA | -0.0669
ATGGCTTC | -0.17
AAGAACTA | -0.08
ATTTAATG | -0.0619
AATTCGGC | -0.178
CAGAGACA | -0.134
AAACAACT | -0.0722
AAAACATC | -0.342
TCAGAGCA | -0.0441
GATCCTGA | 0.301
GATCTAGA | 0.252
GCCCTCAA | -0.141
ATCTTCAT | 0.161
CCTTATGA | 0.0701
TGCCGACA | -0.0342
CAGGATAG | 0.315
ATGTACCG | -0.112
CATGTTTA | -0.114
AGACGATA | 0.363
CTACTCAA | 0.0391
GCCTTTGA | -0.0737
CCGTATGC | 0.0205
GAGGCCTC | -0.131
AGTCAAAG | -0.14
CCGGAGGA | 0.121

Sequence | binding signal [E-score]
ACCCTCCG | 0.13
CAGTGGCA | -0.146
TCTTTAAA | -0.117
AATGGTCG | -0.209
TCACTCAA | -0.0284
AGAGGGAC | -0.0489
CAGACGTC | -0.118
CCTGCATA | -0.0304
ATACAACG | 0.152
CAACGTAG | -0.161
ACGGCGAA | 0.00632
AGAAATCA | -0.264
ACGTACCA | -0.0673
ATGTCAAC | -0.182
ATATCTTG | 0.271
GTCTTCAA | -0.303
AGCTACCA | -0.181
GGATCACC | 0.438
CCTTGTGA | 0.164
CTAAACCA | -0.0463
CTAACAAG | -0.294
TCCATCGA | 0.117
CAATCAAC | -0.241
GACTTCAA | -0.119
AGCCCTAG | -0.193

Sequence | binding signal [E-score]
AGATGACT | 0.0481
CACGGAAC | -0.0143
ATTGTGTA | 0.112
ATAGCTAA | -0.00798
GAAGTTCA | -0.293
GACTCGAC | -0.269
GGCTCACA | 0.0409
CGCTTACA | -0.104
ATGTAATA | 0.208
GCCATCAC | -0.273
AGCGTAAT | -0.0605
ACGAGCGT | -0.0496
CGTTCGTC | -0.0314
ACGTGTGG | -0.212
CCCGGTAG | 0.0265
CACTTCCA | -0.0275
CGCCCCCC | -0.175
TCCAGACA | -0.0599
GTCGGCTA | -0.0191
GGCGCCCA | -0.282
AGGAGGTG | 0.0382
AGTACCAA | -0.128

Reference: publication PMC10668032
